The campaign covered roughly 310,000 compounds. About 14,000 (4.5%) showed an effect of 50% or more. The effect is printed as a negative number. Some of the results follow.
Biological target: human ether-à-go-go-related gene (hERG) potassium channel (human, UniProt Q12809)
Experiment: primary screen, population patch clamp on CHO cells stably expressing hERG
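Further: peak tail current of the secondary pulse compared with the same well before compound.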

Chain of human ether-à-go-go-related gene (hERG) potassium channel (Q12809 whole entry, looked up): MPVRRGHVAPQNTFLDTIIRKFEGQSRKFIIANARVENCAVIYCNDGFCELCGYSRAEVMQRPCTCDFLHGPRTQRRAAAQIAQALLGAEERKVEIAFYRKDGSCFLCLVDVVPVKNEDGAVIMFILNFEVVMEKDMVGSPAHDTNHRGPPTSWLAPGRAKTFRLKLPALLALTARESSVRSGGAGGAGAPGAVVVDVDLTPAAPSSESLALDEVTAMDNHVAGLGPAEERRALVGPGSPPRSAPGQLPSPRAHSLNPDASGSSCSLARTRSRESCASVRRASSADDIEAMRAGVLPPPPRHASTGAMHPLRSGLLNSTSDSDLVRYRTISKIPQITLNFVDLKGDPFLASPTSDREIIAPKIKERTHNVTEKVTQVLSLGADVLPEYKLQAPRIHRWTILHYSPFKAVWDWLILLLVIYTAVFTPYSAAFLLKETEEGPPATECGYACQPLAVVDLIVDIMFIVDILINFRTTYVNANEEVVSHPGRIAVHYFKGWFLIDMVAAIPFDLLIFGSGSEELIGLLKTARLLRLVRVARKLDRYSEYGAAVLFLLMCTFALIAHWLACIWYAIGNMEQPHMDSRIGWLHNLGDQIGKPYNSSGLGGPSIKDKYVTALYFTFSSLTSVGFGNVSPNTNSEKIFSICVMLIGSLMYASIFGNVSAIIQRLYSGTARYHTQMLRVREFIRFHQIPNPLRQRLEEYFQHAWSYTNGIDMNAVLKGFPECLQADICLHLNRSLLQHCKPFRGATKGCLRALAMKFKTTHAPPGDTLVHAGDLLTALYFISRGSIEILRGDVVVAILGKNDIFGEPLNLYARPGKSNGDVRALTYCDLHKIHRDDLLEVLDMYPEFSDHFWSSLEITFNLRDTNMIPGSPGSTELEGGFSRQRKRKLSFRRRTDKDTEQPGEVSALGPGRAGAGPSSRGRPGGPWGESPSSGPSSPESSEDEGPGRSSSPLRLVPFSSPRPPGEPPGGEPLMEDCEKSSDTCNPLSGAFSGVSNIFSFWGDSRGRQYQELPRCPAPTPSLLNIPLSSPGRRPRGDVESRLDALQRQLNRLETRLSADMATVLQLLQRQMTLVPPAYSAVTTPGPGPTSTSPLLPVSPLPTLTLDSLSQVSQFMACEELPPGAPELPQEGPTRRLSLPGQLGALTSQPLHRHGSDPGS

Compound	hERG current change (%, negative = inhibition) at 10uM [%]
Cc1ccc(-n2ncc(C#N)c2/N=C/N2CCN(C)CC2)cc1	-13.8
COc1cc2c(cc1OC)C(C)N(CCc1ccc(Cl)cc1)CC2.O=C(O)/C=C\C(=O)O (stereo not shown)	-70.2
COCCCC1CCN(C(=O)C2CCC(=O)N(CCc3ccccc3)C2)CC1 (stereo not shown)	-19.5
Cc1cc2c(N3CCCCC3C)ncnc2s1 (stereo not shown)	-16.3
CSc1ccccc1NC(=O)CN(c1cccc(C)c1)S(C)(=O)=O	0.894
CSCCC(=O)Nc1ccc(C(C)=O)cc1	3.37
COc1ccccc1-c1ccc(SCc2ccc([N+](=O)[O-])cc2)nn1	-1.95
CCOC(=O)C1(CCOc2ccccc2)CCN(Cc2ccc(O)c(OC)c2)CC1	-75.4
COc1ccc(OC)c(/C=C/C(=O)Nc2ccc(OC)nc2)c1	-14.7
Cc1nc(N)ncc1C(=O)Nc1ccccc1	14.5
O=C(COC(=O)c1ccc(C(F)(F)F)cc1)Nc1cccc(S(=O)(=O)N2CCCCC2)c1	10.2
Cc1ccc(NC(=O)CCS(=O)(=O)c2cccc3nonc23)cc1	-11.5
C=C(C)[C@@H]1CC=C(CN2CCC(CCOC)(C(=O)OCC)CC2)CC1	-64.7
NS(=O)(=O)c1cc(C(=O)OCC(=O)N2CCOCC2)ccc1Cl	23.1
CCCNC(=O)[C@H](C)NC(=O)c1ccc(Br)cc1	12.6
CC1CCCC(NC(=O)CCS(=O)(=O)c2cc3c(cc2Cl)NC(=O)CO3)C1C (stereo not shown)	-49.5
COc1cccc(CNC(=O)C2CCN(S(=O)(=O)c3cccc4cccnc34)CC2)c1	-2.43
CC1CCCCN1C(=S)NCCc1ccccc1 (stereo not shown)	-5.4
O=C(Nc1ccc(F)cc1F)C1CCN(S(=O)(=O)c2cccnc2)CC1	-1.85
CCC(=O)NNc1ncnc2c1cnn2-c1cccc(C)c1	7.93
O=C1CN(O)C=C2N=c3ccccc3=C2N1c1ccc([N+](=O)[O-])cc1	-26.6
O=C(NCc1ccc(OC(F)(F)F)cc1)C1CC(c2c(Cl)cccc2Cl)=NO1 (stereo not shown)	-13.3
C=CCn1cnc2scc(-c3ccc(OC)cc3)c2c1=O	-5.72
CCOc1ccc(C(=O)COC(=O)CC)cc1	4.46
CN(C)Cc1c(C(=O)N/N=C/c2ccccc2OCc2ccc(F)cc2)nnn1-c1nonc1N	32

Reference: paper PMC4336329 (PLoS ONE, 2015)
